“And” between values parts separate entries of the source, which are not always exact repeats. Equal entries are not always repeated. The full ranking holds about 5,300 compounds; the median of “PER2::LUC luminescence relative to vehicle control” is about 0.96, and the highest 2% start at about 1.3. The list shows a part of the results.
Test system: mPer2Luc MEF
Test: PER2::LUC luminescence relative to vehicle control (fold of vehicle); higher = higher PER2::LUC reporter signal
Details: 10 µM
Outline: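 The reported values are PER2::LUC luminescence as fold of vehicle control in mouse embryonic fibroblasts carrying the mPer2Luc reporter. Cells were seeded at ~3000 per well in 384-well plates in DMEM with 10% FBS at 37 °C and 5% CO2, and compounds were added at 10 μM 48 h later. ONE-Glo luminescence was read 24 h and 30 h after treatment.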

Row | SMILES | PER2::LUC luminescence (time after treatment 24 h) | PER2::LUC luminescence (time after treatment 30 h)
1 | COc1cc2ncnc(Nc3cccc(O)c3)c2cc1OC | 0.659 | 0.697
2 | Nc1nc(=O)c2c([nH]1)NCC(CNc1ccc(C(=O)N[C@@H](CCC(=O)O)C(=O)O)cc1)=N2 | 1.06 | 0.985
3 | COC(=O)Nc1nc2cc(C(=O)c3ccc(F)cc3)ccc2[nH]1 | 1.16 | 0.954
4 | COc1ccc(CC(=O)c2ccc(O)cc2O)cc1 | 1.63 | 1.51
5 | CC(=O)O[C@H]1Cc2ccccc2N(C(N)=O)c2ccccc21 | 1.12 | 0.914
6 | CCOC(=O)c1ccc(O)cc1 | 1.06 and 0.859 | 1.02 and 0.79
7 | CCOC(=O)CCN(C(=O)c1ccc2c(c1)nc(CNc1ccc(C(=N)N)cc1)n2C)c1ccccn1 | 1.05 | 0.998
8 | COc1ccccc1N1CCN(CCN2C(=O)N=C3C(=Nc4ccccc43)C2=O)CC1 | 0.831 | 0.823
9 | Nn1cc(Br)c(=O)[nH]c1=O | 0.972 | 0.954
10 | [N-]=[N+]=Nc1ccc(C(=O)CSC[C@H](NC(=O)CC[C@H](N)C(=O)O)C(=O)NCC(=O)O)cc1 | 1.02 | 0.976
11 | CCN1CCN(c2cc(-c3ccc(F)cc3)c3c(n2)CCCCCC3)CC1 | 0.89 | 0.829
12 | O=C(O)c1ccc(S(=O)(=O)N(Cc2ccc(OC(F)(F)F)cc2)c2ncc(C(F)(F)F)cc2Cl)cc1 | 0.814 | 0.911
13 | O=C([O-])C(O)[C@H](O)[C@@H](O)[C@H](O)[C@H](O)CO.O=C([O-])C(O)[C@H](O)[C@@H](O)[C@H](O)[C@H](O)CO.[Ca+2] (stereo partly specified) | 0.911 | 0.936
14 | O=C(/C=C/c1ccccc1)c1ccc(O)cc1O | 1.21 | 1.43
15 | Cc1c(OCC(F)(F)F)ccnc1C[S+]([O-])c1nc2ccccc2[nH]1 (stereo unspecified) | 1.17 | 1.67
16 | Cn1c(=O)c2c(ncn2C)n(C)c1=O | 0.866 | 0.985
17 | CCCCCCCC/C=C\CCCCCCCC(=O)O | 1.14 | 1.15
18 | Fc1ccc(CNc2ncnc3ccc(F)cc23)cc1 | 0.45 | 0.344
19 | CCS(=O)(=O)N1CCC([C@@H](C)n2c(C)c(C(=O)NCc3c(OC)cc(C)[nH]c3=O)c3ccccc32)CC1 | 1.07 | 1.05
20 | COc1cc2ncnc(Nc3cc(Br)c(O)c(Br)c3)c2cc1OC | 0.968 | 0.571
21 | Fc1ccc(-c2cncc(CN3CCN(c4cccc5c4OCCO5)CC3)c2)cc1 | 1.04 | 1.05

Row | SMILES | PER2::LUC luminescence (time after treatment 24 h) | PER2::LUC luminescence (time after treatment 30 h)
22 | CCCCC[C@H](O)CC(=O)CCc1ccc(O)c(OC)c1 | 1.14 | 0.963
23 | CO[C@H]1C[C@@H]2CC[C@@H](C)[C@@](O)(O2)C(=O)C(=O)N2CCCC[C@H]2C(=O)O[C@H]([C@H](C)C[C@@H]2CC[C@@H](OP(C)(C)=O)[C@H](OC)C2)CC(=O)[C@H](C)/C=C(\C)[C@@H](O)[C@@H](OC)C(=O)[C@H](C)C[C@H](C)/C=C/C=C/C=C/1C | 0.516 | 0.54
24 | Cc1cc(O)cc(=O)o1 | 0.961 | 0.977
25 | Nc1ncnc2c1c(-c1cccc(OCc3ccccc3)c1)cn2C1CC(CN2CCCC2)C1 (stereo unspecified) | 0.528 | 0.474
26 | O=C(Nc1cccc(Cl)c1)Nc1ncc(CCNc2ncnc3ccsc23)s1 | 0.711 | 0.641
27 | c1ccc(Cc2nc3ccccc3[nH]2)cc1 | 1.17 | 0.971
28 | CCc1c(C(=O)NCCc2ccc(N3CCCCC3)cc2)[nH]c2ccc(Cl)cc12 | 1.02 | 1.06
29 | NC1(C(=O)O)CCc2cc(P(=O)(O)O)ccc21 (racemic) | 1.03 | 1.01
30 | Cc1ccc(NC(=O)Nc2cc(-c3ccccc3-c3nn[nH]n3)ccc2N(CC(C)C)CC(C)C)cc1 | 0.966 | 0.93
31 | CC(C)[C@@H]1CC[C@@H](C)C[C@H]1OC(=O)c1ccccc1 | 1.05 | 1.05
32 | S=P(N1CC1)(N1CC1)N1CC1 | 1.09 and 0.575 | 1.02 and 0.928
33 | CCCS(=O)(=O)Nc1ccc(F)c(C(=O)c2c[nH]c3ncc(Cl)cc23)c1F | 1.09 | 1.06
34 | CCN1CCCC1CNC(=O)c1cc(S(=O)(=O)CC)c(N)cc1OC (stereo unspecified) | 1.06 and 0.919 | 1.02 and 0.946
35 | Nc1nc(N)nc(-c2cc(Cl)ccc2Cl)n1 | 1 and 0.992 | 1.02 and 1
36 | CNC(=O)CN1CCC(Oc2cc3c(Nc4cccc(Cl)c4F)ncnc3cc2OC)CC1 | 0.899 | 0.828
37 | CC1(C)S[C@@H]2[C@H](/N=C/N3CCCCCC3)C(=O)N2[C@H]1C(=O)O | 0.917 | 0.879
38 | O=C(NCC1CCCCN1)c1cc(OCC(F)(F)F)ccc1OCC(F)(F)F (stereo unspecified) | 0.965 | 0.73
39 | CC1CCc2cc(F)cc3c(=O)c(C(=O)O)cn1c23 (stereo unspecified) | 0.93 | 0.807
40 | COc1cc2c(cc1OC)-c1c(oc3cc(O)cc(O)c3c1=O)CO2 | 0.992 | 0.945
41 | CCOC(=O)c1cn(-c2c(F)c(F)c(C#N)c(F)c2F)c2c(F)c(F)c(F)cc2c1=O | 1.08 | 1.19
42 | CCCCOc1ccc(OCCCN2CCOCC2)cc1 | 1.12 | 1.18

Row | SMILES | PER2::LUC luminescence (time after treatment 24 h) | PER2::LUC luminescence (time after treatment 30 h)
43 | C[C@@H](O)[C@H]1C(=O)N2C(C(=O)OCOC(=O)C(C)(C)C)=C(SC3CN(C4=NCCS4)C3)[C@H](C)[C@H]12 | 1.04 | 0.954
44 | COc1ccc(-n2nc(C(N)=O)c3c2C(=O)N(c2ccc(N4CCCCC4=O)cc2)CC3)cc1 | 1.1 | 1.12
45 | COc1ccc(C(C)=O)c(O)c1 | 0.967 | 0.936
46 | COC(=O)[C@@H]1OC(=O)C2OC23[C@@]1(C)CCC1[C@]2(C)C(C[C@@H](O)[C@]13C)C(C)(C)[C@H](OC(C)=O)C[C@@H]2OC(C)=O (stereo partly specified) | 0.961 | 0.952
47 | COc1cc(-c2nc3ccccc3s2)ccc1O | 1.37 | 1.5
48 | COc1ccc(CCCOC(Cn2ccnc2)c2ccc(OC)cc2)cc1 (stereo unspecified) | 0.798 and 0.555 | 0.782 and 0.601
49 | CC(=O)Oc1cccc(C(=O)O)c1OC(C)=O | 1.02 | 1.07
50 | COc1c(O)cc2c(c1O)[C@@H]1O[C@H](CO)[C@@H](O)[C@H](O)[C@H]1OC2=O | 1.22 and 1.09 | 0.916 and 1.05
51 | CC(C)[C@H]1CC[C@H](C(=O)N[C@H](Cc2ccccc2)C(=O)O)CC1 | 1.03 | 1
52 | Nc1cccc(-c2cc3c(Oc4cccc(O)c4)ncnc3[nH]2)c1 | 0.539 | 0.47
53 | NC(=O)C[n+]1cccc(C(=O)O)c1 | 1.18 | 1.08
54 | COc1ccccc1OCCNCC(O)COc1cccc2[nH]c3ccccc3c12 (stereo unspecified) | 0.663 and 0.591 | 0.679 and 0.605
55 | CC(C)c1nc(CN(C)C(=O)N[C@H](C(=O)N[C@@H](Cc2ccccc2)C[C@H](O)[C@H](Cc2ccccc2)NC(=O)OCc2cncs2)C(C)C)cs1 | 0.937 | 0.862
56 | CCCOC(=O)c1c(-c2ccccc2)nc(CC)c(C(=O)SCC)c1CCC | 1.06 | 0.796
57 | CCC(CC)[C@H](NC(C)=O)[C@@H]1[C@H](O)[C@@H](C(=O)O)C[C@H]1NC(=N)N | 0.941 | 0.985
58 | N[C@@H](C(=O)O)c1ccc(O)c(C(=O)O)c1 | 1.12 | 1
59 | CCn1cc(C(=O)O)c(=O)c2cc(F)c(N3CCNCC3)cc21 | 0.839 | 0.791
60 | Cc1cc(Cc2cc(C)cc(C(C)(C)C)c2O)c(O)c(C(C)(C)C)c1 | 0.949 | 0.925
61 | CN(C)c1nc(N)c(C(=O)NC(=N)N)nc1Cl | 1.04 | 1.12
62 | c1ccc(N2CCN(CCCOc3ccc4c(c3)OCO4)CC2)cc1 | 0.829 | 0.83
63 | O=c1c(O)c(-c2ccc(O)c(O)c2)oc2c(O[C@@H]3O[C@H](CO)[C@@H](O)[C@H](O)[C@H]3O)c(O)cc(O)c12 | 0.934 | 0.879

Row | SMILES | PER2::LUC luminescence (time after treatment 24 h) | PER2::LUC luminescence (time after treatment 30 h)
64 | CC1(C)S[C@@H]2[C@H](N3C(=O)[C@@H](c4ccccc4)NC3(C)C)C(=O)N2[C@H]1C(=O)O | 1.18 | 0.92
65 | CCOC(=O)C1=C(C)NC(C)=C(C(=O)OC)C1c1cccc([N+](=O)[O-])c1 (stereo unspecified) | 1.06 and 0.626 | 1.37 and 0.715
66 | CC(=O)O[C@H]1C[C@@H](OC(C)=O)C(C)(C)C2CC(=O)[C@]3(C)C(CC[C@@]4(C)[C@H](C(=O)O)OC(=O)C5OC543)[C@]21C (stereo partly specified) | 1.05 | 1.02
67 | CCCCCCCCCCCCCCCCC(C(=O)O)C(O)(CC(=O)O)C(=O)O (stereo unspecified) | 0.989 | 0.975
68 | Cc1nc2c(OCc3ccccc3)cccn2c1CC#N | 0.965 | 0.778
69 | N[C@H](C(=O)O)[C@H](Cc1ccccc1)C(=O)O | 0.943 | 0.916
70 | O=c1oc2ccc(O)cc2c2c1NCCC2 | 0.764 | 1.05
71 | CN(C)[C@@H]1CCc2[nH]c3ccc(NC(=O)c4ccc(F)cc4)cc3c2C1 | 0.892 | 0.939
72 | CCOc1cc(N2CCC(O)CC2)ccc1Nc1ncc2c(n1)N(C)c1ccccc1C(=O)N2C | 0.29 | 0.332
73 | Fc1ccc2[nH]ccc2c1-c1nc(N2CCOCC2)c2sc(CN3CCN(CC4CC4)CC3)cc2n1 | 0.63 | 0.606
74 | C=C1[C@H]2CC[C@@]3(C)[C@H](c4ccoc4)OC(=O)C[C@]13O[C@H]1C[C@H](O)C(C)(C)[C@H](CC(=O)OC)[C@]12C | 1.01 | 1.02
75 | CC(CN1c2ccccc2Sc2ccccc21)N(C)C (stereo unspecified) | 0.859 and 0.812 | 0.787 and 0.681
76 | Cc1ccc(NC(=O)Nc2cc(C(F)(F)F)ccc2F)cc1Nc1ccc2c(c1)NC(=O)/C2=C\c1ccc[nH]1 | 0.837 | 1.16
77 | CNC(=O)c1ccccc1Sc1ccc2c(/C=C/c3ccccn3)n[nH]c2c1 | 1.07 | 0.982
78 | NS(=O)(=O)c1cc2c(cc1C(F)(F)F)NC(Cc1ccccc1)NS2(=O)=O (stereo unspecified) | 0.938 | 1.08
79 | O=C(CCCCCCCCCCCCC1CCCC1)Nc1ccc(S(=O)(=O)c2ccc(NC(=O)CCCCCCCCCCCCC3CCCC3)cc2)cc1 | 1.06 | 1.02
80 | CNC(=O)c1ccc(N2C(=S)N(c3cnc(C#N)c(C(F)(F)F)c3)C(=O)C23CCC3)cc1F | 1.3 | 1.16
81 | CCCCC[C@H](O)/C=C/[C@@H]1[C@@H](C/C=C\CCCC(=O)O)[C@H](O)C[C@H]1O | 1.1 | 1.1
82 | O=C(c1ccc(OCCN2CCCCC2)cc1)c1c(-c2ccc(O)cc2)sc2cc(O)ccc12 | 0.35 | 0.69
83 | O=C(/C=C/c1ccccc1)NC(NC(=S)Nc1ccc(Cl)cc1)C(Cl)(Cl)Cl (stereo unspecified) | 0.96 | 1.16

Source: the supplement of paper PMC9334596
